# From PubChem BioAssay AID485313 (National Center for Advancing Translational Sciences (NCATS), 2010)
# The campaign covered roughly 320,000 compounds. About 7,600 (2.4%) were called active. Inconclusive results, whose numbers are uncertain, are shown with a selection of clear calls. Calls follow the shape of the dose curve; as a rule, active = well fitted activation curve with a large enough effect; inconclusive = small, poorly fitted or top-dose-only effect; inactive = no such curve, though single readings can be large or run the other way. Potencies of inconclusive entries are left out as doubtful fits.
# Experiment: qHTS Assay for NPC1 Promoter Activators; also: nearly all actives have a fitted effect of over 60% in size;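 as to activation: reporter is driven by a mutant NPC1 promoter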
# Conditions: Huh7 NPC1 promoter luciferase reporter, 24 h; series mostly up to 9.22 µM
# Summary of the method: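 Luminescence read-out of NPC1 promoter-driven luciferase in stably transfected Huh7 cells; compounds delivered in DMSO and left 24 h at 37C, 5% CO2, qHTS titration format.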
# Potency is read from the fitted curve at half-maximal effect; tags tell the direction and shape of the fitted curve.
row,SMILES,Potency
1,Cc1c([N+](=O)[O-])c(C(=O)Nc2ccc3c(c2)OCCO3)nn1C,"inconclusive [activator, partial curve]"
2,COc1ccc(-c2noc(-c3ccc(Cl)cc3[N+](=O)[O-])n2)cc1OC,"inconclusive [activator, single point]"
3,Cc1sc(NC(=O)c2ccccc2F)c(CN2CCCCC2C)c1C (stereo unspecified),"inconclusive [activator, single point]"
4,CC1Sc2ccc(S(=O)(=O)CCC(=O)N3CCCC3)cc2NC1=O (stereo unspecified),inactive
5,Nc1nc2ccc(N3CCOCC3)cc2s1,"inconclusive [activator, partial curve]"
6,CSc1nc2ccc3nc(NC(=O)c4cccs4)sc3c2s1,active: 3.16 µM
7,Cc1ccc(-c2nc3ccccc3[nH]2)cn1,"inconclusive [activator, single point]"
8,O=C(Nc1nc2ccccc2[nH]1)c1ccc([N+](=O)[O-])cc1,active: 1 µM
9,CC(=O)c1sc(NC(=O)c2ccc(F)cc2)nc1-c1ccccc1,"inconclusive [activator, partial curve]"
10,N#Cc1ccccc1NC(=O)COc1ccc2c(c1)OCO2,active: 3.98 µM
11,COc1ccc(NC(=S)Nc2ncccc2C)cc1OC,"inconclusive [activator, partial curve]"
12,Cc1ccc2nc(-c3ccc(NC(=O)CN4CCN(c5ccccn5)CC4)cc3)sc2c1,"inconclusive [activator, partial curve]"
13,CCOC(=O)c1cccc(NC(=O)CSc2nc3cccnc3n2C)c1,inactive
14,CSc1ccccc1OCc1cc(C(=O)N(C)Cc2ccc(C)o2)no1,"inconclusive [activator, partial curve]"
15,CCN1CCN(Cc2ccc(NC(=O)Nc3ccc(OC)cc3)cc2)CC1,inactive
16,Nc1c(-c2ccccc2)cnn1-c1cccc(Cl)c1,active: 1.12 µM
17,Cc1ccc(NC(=O)c2cnn(-c3ccccc3)c2C)cc1C,active: 0.398 µM
18,CCOc1ncccc1C(=O)Nc1ccc2nc(C)sc2c1,"inconclusive [activator, partial curve]"
19,CC(CNC(=O)CN1C(=O)C(=O)N(C2CCCC2)C1=O)c1ccccc1 (stereo unspecified),inactive
20,Cc1ccc(Nc2cc(C)c3c(O)cccc3n2)cc1C,"inconclusive [activator, single point]"
21,C=CCc1ccc(OCc2ccc(C(=O)Nc3ccc(NC(C)=O)cc3)o2)c(OC)c1,active: 1.12 µM

row,SMILES,Potency
1,Cc1cnc(NC(=O)CC2CCCC2)s1,"inconclusive [activator, partial curve]"
2,Cc1ccc(/C=C/c2ccc3cccc(O)c3n2)s1,active: 3.98 µM
3,Cc1ccc(C(=O)Nc2cccc3cccnc23)cc1C,active: 2.82 µM
4,Cc1occc1C(=O)Nc1sccc1C(N)=O,inactive
5,Cc1cc(Cl)c2oc(C(=O)NCCC3CCCCO3)c(C)c2c1 (stereo unspecified),"inconclusive [activator, partial curve]"
6,c1ccc(-c2cc(N3CCCCCC3)n[nH]2)cc1,"inconclusive [activator, partial curve]"
7,COc1ccc(C(=O)c2ccc(OC)cc2O)c(O)c1,"inconclusive [activator, single point]"
8,CCOC(=O)c1cc(C)n(-c2ccccc2)c1C,inactive
9,CCN(CC(=O)Nc1c(F)cccc1F)C(=O)CNC(=O)c1ccc(C)s1,"inconclusive [activator, partial curve]"
10,COc1ccc(Nc2cnn(-c3nc4ccccc4s3)c(=O)c2Cl)cc1,"inconclusive [activator, partial curve]"
11,O=C(Nc1ccc2oc(-c3ccccc3)nc2c1)c1cccnc1,"inconclusive [activator, partial curve]"
12,O=C(Cc1ccc([N+](=O)[O-])cc1)Nc1ccon1,inactive
13,O=C(Nc1ccc2c(c1)nc1n2CCSC1)c1ccccc1,"inconclusive [activator, partial curve]"
14,O=C(NC(=S)Nc1cc([N+](=O)[O-])ccc1O)c1ccc2c(c1)OCO2,active: 0.316 µM
15,CCOC(=O)N1CCN(C(=O)CNC(=O)c2ccc(Br)o2)CC1,inactive
16,Cc1nn(-c2ccc([N+](=O)[O-])cc2)c(N)c1-c1ccccc1,active: 1.58 µM
17,Cc1ccc(NC(=O)c2ccc(OC(=O)COc3ccc(Cl)cc3C)cc2)cc1,active: 3.98 µM
18,COc1ccc(-c2nc(C#N)c(NC(C)C)o2)cc1,"inconclusive [activator, partial curve]"
19,O=C(c1cccc(S(=O)(=O)Nc2ccc(F)cc2)c1)N1CCOCC1,inactive
20,CCc1cc2c(=O)c(-c3ccc4c(c3)OCCO4)coc2cc1OC(=O)c1ccco1,active: 1.78 µM
21,COc1cc(/C(C)=N/Nc2ccc(C(=O)O)cc2)cc(OC)c1OC,"inconclusive [activator, partial curve]"

row,SMILES,Potency
1,NC(=O)c1c(NC(=O)c2ccco2)sc2c1CCC2,active: 3.55 µM
2,CCCCCCOC(=O)NCC(O)c1ccccc1 (stereo unspecified),active: 3.98 µM
3,N#Cc1nc(-c2ccc(Cl)cc2)oc1NCc1ccco1,"inconclusive [activator, partial curve]"
4,Nc1nc2ccccc2n1C(=O)c1ccco1,"inconclusive [activator, single point]"
5,CNc1ccc(/C=C(\C#N)c2ccccn2)cc1[N+](=O)[O-],active: 2.82 µM
6,CCOc1ccc(Nc2oc(-c3ccco3)nc2C#N)cc1,"inconclusive [activator, full curve]"
7,CCOC(=O)c1cccc(NC(=O)c2ccco2)c1,"inconclusive [activator, partial curve]"
8,COc1ccc(/C(C#N)=C/c2cccnc2)cc1,"inconclusive [activator, partial curve]"
9,O=C(Nc1ccon1)c1cccc(Cl)c1,inactive
10,CC(C)(C)OC(=O)N1CCC(C(=O)Nc2ccc3c(c2)CCC3)CC1,"inconclusive [activator, single point]"
11,O=C(Nc1sc2c(c1C(=O)O)CCCC2)c1cccc(Cl)c1,"inconclusive [activator, full curve]"
12,Cc1ccc(-c2ccc(SCC(=O)NC3CCCCC3)nn2)cc1,"inconclusive [activator, single point]"
13,Clc1cccc(-c2nc(-c3ccccn3)no2)c1,active: 0.316 µM
14,Cc1ccc(NC(=O)Nc2cnccn2)cc1,"inconclusive [activator, partial curve]"
15,COc1cccc(CNn2cnnc2)c1O,inactive
16,Cc1cc(NC(=O)NCc2ccccc2)c(=O)n(Cc2ccc(F)cc2)c1,inactive
17,O=C(Nc1cccc(-c2csc(Nc3ccccc3)n2)c1)c1ccccc1,"inconclusive [activator, single point]"
18,COc1cccc(C(=O)c2cc3cc(Cl)ccc3[nH]2)c1,"inconclusive [activator, single point]"
19,CCOc1ccc(N(C)c2ccc(/C=C3/SC(=S)NC3=O)cc2)cc1,inactive
20,COCCN(C(=O)COC(=O)c1cccs1)c1c(N)n(Cc2ccccc2)c(=O)[nH]c1=O,inactive
21,Nc1ccc(-c2nc3ccc(N)cc3o2)cc1,"inconclusive [activator, partial curve]"

row,SMILES,Potency
1,Cc1ccc(C2=CC(c3cccs3)n3nnnc3N2)cc1 (stereo unspecified),active: 5.01 µM
2,Cc1ccc(C(=O)C=CNNC(=O)c2ccccc2)cc1,inactive
3,COc1ccc(NC(=O)c2cc(F)c(F)cc2Cl)cc1Cl,"inconclusive [activator, partial curve]"
4,O=C(Nc1ccc(Cl)cc1)C1=Cc2ccccc2OC1,active: 3.16 µM
5,COc1ccc(NC(=O)c2ccccn2)cc1OC,"inconclusive [activator, partial curve]"
6,CC(C)=CC(=O)N1CCC(n2nccc2NC(=O)CCc2ccccc2)CC1,inactive
7,CC(=O)Nc1ccc2c(c1)nc1n2CCN(C2CCCCC2)C1,active: 3.55 µM
8,NC(=NCc1ccco1)NC(=O)c1ccc(Cl)cc1,"inconclusive [activator, partial curve]"
9,CCC1CCCCN1C(=O)CSc1nnc(-c2cccc(Cl)c2)o1 (stereo unspecified),inactive
10,COc1ccc(-c2cnn3c4c(c(C)nc23)CCN4C(C)C)cc1OC,"inconclusive [activator, partial curve]"
11,Clc1ccc(CN2CCCCCCC2)cc1Cl,inactive
12,C/C(=N/Nc1nc(C)cc(-c2ccccc2)n1)c1ccco1,"inconclusive [activator, single point]"
13,CCOC(=O)Cn1cnc2c(sc3nc(C)cc(C)c32)c1=O,"inconclusive [activator, partial curve]"
14,Cc1csc(NC(=O)c2ccc(Cl)nc2)n1,"inconclusive [activator, partial curve, poor fit]"
15,Cc1nc2ccccn2c1C(=O)/C=C/c1ccc(F)cc1,active: 2.82 µM
16,Cc1ccc(Nc2nc(COC(=O)C3CC3)cs2)cc1,"inconclusive [activator, partial curve]"
17,S=c1nc2ccccc2c2nc(-c3ccccc3)[nH]n12,"inconclusive [activator, single point]"
18,O=c1[nH]c(-c2ccccn2)nc2sc(-c3ccccc3)cc12,active: 3.55 µM
